Data from article PMC4336329 (PLoS ONE, 2015).
About 2,200 (0.71%) of roughly 310,000 compounds showed an effect of 50% or more. Effects have a minus sign here. The list shows a part of the results.

molecular target: human ether-à-go-go-related gene (hERG) potassium channel (human, UniProt Q12809); assay: primary screen, population patch clamp on CHO cells stably expressing hERG
Sequence (Q12809 whole entry, looked up): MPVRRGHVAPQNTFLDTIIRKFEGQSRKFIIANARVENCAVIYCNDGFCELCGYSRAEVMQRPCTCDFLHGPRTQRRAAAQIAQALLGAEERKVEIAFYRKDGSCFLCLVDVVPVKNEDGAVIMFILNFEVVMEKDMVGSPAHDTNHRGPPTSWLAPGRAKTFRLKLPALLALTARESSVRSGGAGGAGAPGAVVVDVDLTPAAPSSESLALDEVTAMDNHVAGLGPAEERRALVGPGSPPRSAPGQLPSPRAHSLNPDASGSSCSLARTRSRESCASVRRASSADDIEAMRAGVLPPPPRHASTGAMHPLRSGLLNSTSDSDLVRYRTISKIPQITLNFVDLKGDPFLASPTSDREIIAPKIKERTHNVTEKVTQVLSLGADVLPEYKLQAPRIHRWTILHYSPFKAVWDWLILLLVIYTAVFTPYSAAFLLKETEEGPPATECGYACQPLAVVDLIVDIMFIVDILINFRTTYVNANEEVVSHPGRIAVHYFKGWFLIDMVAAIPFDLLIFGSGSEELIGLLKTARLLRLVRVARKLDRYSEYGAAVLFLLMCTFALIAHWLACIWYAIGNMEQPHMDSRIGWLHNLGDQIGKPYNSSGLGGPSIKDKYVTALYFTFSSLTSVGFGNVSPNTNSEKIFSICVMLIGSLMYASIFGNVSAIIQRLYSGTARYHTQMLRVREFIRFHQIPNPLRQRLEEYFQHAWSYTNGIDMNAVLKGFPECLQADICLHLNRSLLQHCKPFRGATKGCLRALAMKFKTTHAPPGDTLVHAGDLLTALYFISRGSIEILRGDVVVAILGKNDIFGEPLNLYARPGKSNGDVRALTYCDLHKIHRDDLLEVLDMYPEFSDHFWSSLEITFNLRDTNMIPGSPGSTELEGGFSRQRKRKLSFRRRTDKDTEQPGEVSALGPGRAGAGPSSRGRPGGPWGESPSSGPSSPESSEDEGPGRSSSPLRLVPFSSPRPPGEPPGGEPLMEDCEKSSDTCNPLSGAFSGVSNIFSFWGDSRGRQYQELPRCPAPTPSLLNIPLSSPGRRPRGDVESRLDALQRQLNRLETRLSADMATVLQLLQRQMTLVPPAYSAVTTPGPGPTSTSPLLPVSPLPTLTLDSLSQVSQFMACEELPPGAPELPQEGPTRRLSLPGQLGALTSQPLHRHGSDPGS

SMILES	hERG current change (%, negative = inhibition) at 1uM [%]
CC(=O)NC1C(OCc2ccccc2)OC(COC(C)=O)C(OC(C)=O)C1OC(C)=O (centres unmarked)	15.8
COc1cccc(CNC(=O)COC(=O)c2cc(Br)c(Br)s2)c1	14.1
CC(C)CC1NC(=O)N(CC(=O)Nc2ccc(-c3ccccc3)cc2)C1=O (centres unmarked)	10
COc1ccc2nc(NC(=O)CCN3C(=O)c4ccccc4C3=O)sc2c1	3.41
O=c1ccc(-c2n[nH]c(=S)n2-c2ccc(F)c(Cl)c2)n[nH]1	14.8
C/C(=N/N1CCN(Cc2cccc3ccccc23)CC1)c1cccnc1	-4.88
N/C(=N\OC(=O)Cc1ccccc1)c1ccncc1	11.7
CCOC(=O)NC1(C(F)(F)F)C(=O)NC(C)=C1C(=O)OC (centres unmarked)	5.34
Cc1ccc(NC(=O)CN(C)C(=O)/C=C/c2ccc3c(c2)OCO3)cc1	-4.6
CCN(CC(=O)NC(=O)NCc1ccccc1)Cc1nc2ccccc2c(=O)[nH]1	6.57
Cc1ccc(OCC(=O)NC(=S)Nc2cccc(NC(=O)c3ccccc3Cl)c2)cc1	-0.0695
C=CCN(c1ccc(C(=O)Nc2ccc(C)cc2)cc1)S(C)(=O)=O	8.12
O=C(CSc1ccccn1)N1CCN(c2ncc(C(F)(F)F)cc2Cl)CC1	-4.57
Cc1nc(SCC#N)c2c3c(sc2n1)CCC3	-3.28
CC(CCc1ccccc1)NC(=O)CCCCCNc1nc(=S)[nH]c2ccccc12 (centres unmarked)	5.34
Cc1noc(C)c1S(=O)(=O)N1CCC2(CC1)OCCO2	11.7
CC(=O)Oc1cccc(/C=C2\Sc3ccccc3C2=O)c1	11.1
CC(=O)Nc1ccc(N2CCN(c3ccc(C(F)(F)F)cn3)CC2)nc1	8.34
O=C(COC(=O)Cc1c[nH]c2ccccc12)Nc1cccc2ccccc12	12
Cc1cc(OCC(=O)NC(Cc2ccc(Cl)cc2)C(=O)O)c2c(C)cc(=O)oc2c1 (centres unmarked)	6.06
CCCS(=O)(=O)c1c(S(=O)(=O)CCC)c2c(N)cccn2c1C(=O)c1ccccc1	9.79
CCOC(=O)N1CCN(S(=O)(=O)c2ccc(-n3cnnn3)cc2)CC1	-6.68

SMILES	hERG current change (%, negative = inhibition) at 1uM [%]
CC(=O)Nc1ccc(NC(=O)COC(=O)CCCc2c[nH]c3ccccc23)cc1	5.96
CS(=O)c1ccccc1-c1nc(-c2ccc(Cl)cc2)no1 (centres unmarked)	5.58
COc1ccc(N2C(=O)C(CC(N)=O)N(NC(=O)c3cccc(OC)c3)C2=S)cc1 (centres unmarked)	17.4
Cc1nnc(SCCn2c(N3CCN(C)CC3)nc3c2c(=O)[nH]c(=O)n3C)s1	8.37
CCOC(=O)c1n[nH]n2c1nc(=O)c1ccccc12	16.7
Cc1ccc(C(=O)NCCN2C3=NC[C@H](C(C)C)N3C[C@H]2Cc2ccc(O)cc2)cc1Br	0.0506
CCOC(=O)c1cc(C)n(-c2ccccc2)c1C	11.9
CC(C)CN(C(=O)CCc1ccccc1)c1c(N)n(CC(C)C)c(=O)[nH]c1=O	6.51
CCOc1ccc(OCCN2C(=O)NC3(CCCc4ccccc43)C2=O)cc1 (centres unmarked)	3.7
CCN1CCN(C(=O)C2COc3ccccc3O2)CC1 (centres unmarked)	1.63
Cc1c(C(=O)O)cccc1-c1ccc(/C=C2/NC(=O)N(c3ccccc3)C2=O)o1	24.8
O=C(CN1C(=O)c2ccccc2S1(=O)=O)NC1CCCC1	14.6
Cc1ccc2oc(C(=O)N(Cc3ccncc3)CC3CCCO3)c(C)c2c1 (centres unmarked)	0.601
O=C(CCc1ccccc1)NCCSCc1c(F)cccc1Cl	7.76
Cc1cc(C)n2nc(C)c(-c3ccc(Cl)cc3)c2n1	19.4
O=C(N/N=C/c1cn(-c2ccccc2)nc1-c1cc2ccccc2o1)c1c[nH]c2ccccc12	19.5
CCN(CC)c1ccc(S(=O)(=O)N2CCOCC2)cc1NC(=O)CSC(=S)N1CCCC1	-9
Cc1ccccc1C(=O)NCC(=O)c1ccccc1	4.83
CCN(CC)S(=O)(=O)c1cc(NC(=O)c2ccc3c(c2)NC(=O)C(C)S3)ccc1C (centres unmarked)	7.51
O=C(Cc1cccs1)N(Cc1ccco1)C1(C(=O)NC2CCCCC2)CCCCC1	8
CCOC(=O)N1CCN(S(=O)(=O)c2ccc(C(=O)Nc3nc4c(s3)CC(C)CC4)cc2)CC1 (centres unmarked)	14
Cc1cc(F)ccc1NCc1ccncc1	-1.09
